Screen size: about 220,000 compounds; about 2,300 (1%) were called active. The shares of active, inactive and inconclusive entries below differ from those in the screen. Calls come from the whole dose curve; as a rule, active = well fitted inhibition curve with a large enough effect; inconclusive = small, poorly fitted or top-dose-only effect, or effect the other way; inactive = no such curve, though single readings can be large or run the other way. Potencies of inconclusive entries are left out as doubtful fits.
Target: Neuropeptide S receptor (Homo sapiens) (UniProt Q6W5P4)
Experiment: qHTS Assay for Antagonists of the Neuropeptide S Receptor: cAMP Signal Transduction; note: nearly all actives have a fitted effect of over 50% in size
Conditions: CHO-NPSR cells, cAMP TR-FRET, antagonist mode; series mostly up to 38.3 µM
Potency is the fitted concentration of half-maximal effect; tags give direction and shape of the fitted curve.

UniProt Q6W5P4, sequence (Q6W5P4 whole entry, looked up): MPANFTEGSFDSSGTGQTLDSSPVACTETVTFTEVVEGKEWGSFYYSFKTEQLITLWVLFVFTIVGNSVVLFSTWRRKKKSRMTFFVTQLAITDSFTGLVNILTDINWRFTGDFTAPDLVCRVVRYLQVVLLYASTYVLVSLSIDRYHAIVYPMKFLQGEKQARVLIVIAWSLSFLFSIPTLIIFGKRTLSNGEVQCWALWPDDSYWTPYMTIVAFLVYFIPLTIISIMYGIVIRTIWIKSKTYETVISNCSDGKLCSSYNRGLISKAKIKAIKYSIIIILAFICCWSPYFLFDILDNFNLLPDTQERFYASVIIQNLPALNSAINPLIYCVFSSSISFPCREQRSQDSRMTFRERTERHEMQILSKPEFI

Q: `COc1ccc([C@H]2[C@H](C(=O)C(C)(C)C)N3N=Cc4ccccc4C3[C@]23N=C(c2ccccc2)OC3=O)cc1OC` (some centres undefined) was tested. Which Potency did it give?
A: The Potency was inconclusive [inhibitor, partial curve].

Q: For `O=[N+]([O-])c1c(C(Cl)Cl)nn(-c2ccccc2)c1N1CCCC1`, which Potency is on record?
A: The Potency was inconclusive [inhibitor, single point].

Q: With `CC1(C)Cc2c(sc3c2c(=N)n(Cc2ccco2)c(=O)n3Cc2ccc(F)cc2)CO1` as the compound, how does the Potency read?
A: The Potency was inconclusive [inhibitor, full curve, poor fit].

Q: How did the Potency turn out when `Cc1ccc(-n2c(SCC3CCCCO3)nnc2-c2ccco2)cc1` (centres undefined) was run?
A: Its Potency is inconclusive [inhibitor, partial curve].

Q: Which Potency does the source give for `COc1ccc(/C=C/C(=O)Nc2ccccc2C(=O)O)cc1OC` here?
A: Its Potency is inconclusive [inhibitor, partial curve].

Q: `CCCCCCn1c(O)c(/C=C2\C=NN=C2c2ccccc2)sc1=S` was tested. Which Potency did it give?
A: Its Potency is inconclusive [inhibitor, single point].

Q: With `S=C(Nc1ccccc1)Nc1cc(Cl)ccc1Oc1ccccc1` as the compound, how does the Potency read?
A: Its Potency is inconclusive [inhibitor, single point].

Q: How did the Potency turn out when `CCCn1c(N2CCN(C(=O)N3CCCCC3)CC2)nc2ccccc21` was run?
A: The Potency was inconclusive [inhibitor, full curve, poor fit].

Q: For `Cc1ccc(-c2nc(Nc3cccc(C)c3)sc2CC(=O)O)cc1`, which Potency is on record?
A: The Potency was “inactive”.

Q: `COc1ccc(OC)c(/C=N/Nc2nncn2/N=C/c2cc(OC)ccc2OC)c1` was tested. Which Potency did it give?
A: The Potency was “inactive”.

Q: For `COc1ccc(Nc2ncc(C(=O)N3CCN(c4ccc(F)cc4)CC3)c3ccccc23)cc1`, which Potency is on record?
A: Its Potency is inconclusive [inhibitor, single point].

Q: With `COC(=O)c1[nH]c(=O)c2ccccc2c1O` as the compound, how does the Potency read?
A: The Potency was inconclusive [inhibitor, single point].

Q: For `O=C(Cc1sc(-c2ccccc2Cl)nc1-c1ccccc1)Nc1ccccc1`, which Potency is on record?
A: The Potency was inconclusive [inhibitor, single point].

Q: For `N#C/C(=C(/O)COC(=O)c1ccc(C#N)cc1)c1nc2ccccc2s1`, which Potency is on record?
A: The Potency was “inactive”.

Q: `C=CCn1c(=O)c2ccccc2n2c(SCc3csc(-c4ccccc4)n3)nnc12` was tested. Which Potency did it give?
A: Its Potency is inconclusive [inhibitor, partial curve].

Q: For `COc1ccc(N=C2O/C(=C/c3sc(=S)n(CC4CCCO4)c3O)N=C2C#N)cc1` (centres undefined), which Potency is on record?
A: Its Potency is inconclusive [activator, single point].

Q: For `COC(=O)C1=NN(c2ccccc2)C2(S1)SC(C(C)=O)=C(C)N2c1ccccc1` (centres undefined), which Potency is on record?
A: Its Potency is inconclusive [inhibitor, single point].

Q: `COc1cc(OC)c2cc(C(=O)N/N=C/c3cccc(OC)c3O)[nH]c2c1` was tested. Which Potency did it give?
A: Its Potency is “inactive”.

Q: `Cc1cc(C)nc(NS(=O)(=O)c2ccc(NC(=S)NC(=O)CC(C)C)cc2)n1` was tested. Which Potency did it give?
A: The Potency was inconclusive [inhibitor, partial curve].

Q: For `CCN(c1ccccc1)S(=O)(=O)c1ccc(C(=O)Oc2ccc(C(C)=O)cc2)cc1`, which Potency is on record?
A: The Potency was “inactive”.

Q: `CC1(C)Cc2c(c(N3CCOCC3)nc3sc4c(NCC5CCCO5)nnnc4c23)CS1` (centres undefined) was tested. Which Potency did it give?
A: The Potency was inconclusive [activator, full curve, poor fit].

Q: `Cc1ccc2[nH]c3c(N4CCN(Cc5ccccc5)CC4)ncnc3c2c1` was tested. Which Potency did it give?
A: The Potency was active: 12.6 µM.

Q: How did the Potency turn out when `CCN1C(=O)c2cccc3c(NC(=O)c4ccc(S(=O)(=O)N(C)C)cc4)ccc1c23` was run?
A: Its Potency is “inactive”.

Q: For `CC(C)C1Cc2c(C#N)c(N)sc(=S)c2CO1` (centres undefined), which Potency is on record?
A: The Potency was inconclusive [inhibitor, single point].

Q: Which Potency does the source give for `Cc1cccc(OCC(=O)NNC(=O)c2cc3ccccc3oc2=O)c1` here?
A: The Potency was “inactive”.

Q: `Oc1ccc(/C=C/c2cc(O)cc(O)c2)cc1` was tested. Which Potency did it give?
A: Its Potency is “inactive”.

Q: For `CCOC(=O)/C=C1\SCC(=O)N1CCOc1cccc(Br)c1`, which Potency is on record?
A: Its Potency is inconclusive [inhibitor, single point].

Q: `O=C(CCCN1C(=O)c2ccccc2C1=O)NCCCN1CCOCC1` was tested. Which Potency did it give?
A: The Potency was inconclusive [inhibitor, single point].

Q: How did the Potency turn out when `C/C(=N/NS(=O)(=O)c1ccc(Br)cc1)c1ccc(NC(=O)c2ccc(C)o2)cc1` was run?
A: Its Potency is inconclusive [inhibitor, single point].

Q: With `Brc1ccc(-c2ccc(/C=N/Nc3nc4ccccc4[nH]3)o2)cc1` as the compound, how does the Potency read?
A: The Potency was inconclusive [inhibitor, single point].

Q: Which Potency does the source give for `Cc1cccc(NC(=O)CSc2ncnc3c2oc2ccccc23)c1` here?
A: Its Potency is inconclusive [inhibitor, single point].

Q: With `Cc1ccc([N+](=O)[O-])cc1NC(=S)NC(=O)c1cccnc1` as the compound, how does the Potency read?
A: Its Potency is “inactive”.

Q: How did the Potency turn out when `Cn1c(/C=C/c2ccc([N+](=O)[O-])o2)nc2ccccc2c1=O` was run?
A: The Potency was active: 10 µM.

Q: How did the Potency turn out when `COc1ccc(CNCCC(c2ccccc2)c2ccc3c(c2)OCO3)cc1` (centres undefined) was run?
A: Its Potency is inconclusive [inhibitor, partial curve].

Q: How did the Potency turn out when `COc1ccccc1-c1c(C)nn2c(N3CCCCCC3)cc(C)nc12` was run?
A: The Potency was active: 10 µM.

Q: `CC(C)Oc1ccc(CNC(=O)CC(c2ccccc2)c2cc(Cl)ccc2O)cc1` (centres undefined) was tested. Which Potency did it give?
A: Its Potency is inconclusive [inhibitor, single point].

Q: How did the Potency turn out when `FC(F)(F)c1cccc(Oc2nc(-c3ccccc3)nnc2C(F)(F)F)c1` was run?
A: Its Potency is inconclusive [inhibitor, single point].

Q: For `CC(C)N1CCc2c(sc(NC(=O)c3ccc(S(=O)(=O)N4CCc5ccccc54)cc3)c2C(N)=O)C1`, which Potency is on record?
A: Its Potency is “inactive”.

Q: Which Potency does the source give for `COc1cc([N+](=O)[O-])cc2sc(NC(=O)C3CC3)nc12` here?
A: Its Potency is inconclusive [inhibitor, single point].

Q: With `CCOc1ccccc1Nc1ncnc2c1cnn2-c1ccccc1` as the compound, how does the Potency read?
A: The Potency was inconclusive [inhibitor, partial curve].

Q: Which Potency does the source give for `CCN(CC)C(=O)CSc1ncnc2c1nnn2-c1ccc(F)cc1` here?
A: The Potency was inconclusive [inhibitor, partial curve, poor fit].

Q: With `COc1ccc(N2CCN(c3oc(COc4ccccc4)nc3C#N)CC2)cc1` as the compound, how does the Potency read?
A: Its Potency is inconclusive [inhibitor, single point].

Q: With `CCC(C)[C@H](NC(=O)Nc1ccc(C(C)=O)cc1)C(=O)OC` (some centres undefined) as the compound, how does the Potency read?
A: The Potency was “inactive”.

Q: Which Potency does the source give for `COC(=O)c1c(C)[nH]c(C(=O)/C=C/c2ccccc2)c1C` here?
A: Its Potency is inconclusive [activator, full curve, poor fit].

From PubChem BioAssay AID1461 (National Center for Advancing Translational Sciences (NCATS), 2008)
